From the RNAGym collection of RNA variant scans (doi:10.1093/nar/gkz1192)
Read counts are not given, so values of variants with three or more changes are uncertain.

B1: CPEB3 Ribozyme (parent)
chain: UAACAGGGGGCCACAGCAGAAGCGUUCACGUCGCAGCCCCUGUCAGAUUCUGGUGAAUCUGCGAAUUCUGCUGUAUAUCUC

Variants of: B1
Test: self-cleavage, relative activity (ratio to wild type); higher = more cleavage; in vitro, sequencing
How it was run: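 Barcoded CPEB3 ribozyme mutants, produced by rounds of error-prone PCR, self-cleaved while being transcribed with T7 RNA polymerase for 5 hours at 37°C and during a subsequent 15 min DNase I step before EDTA was added. Sequencing of template-switched cDNA on Illumina gave cleaved and total reads, and DNA sequencing assigned barcodes to variants. Each variant's relative activity is its cleaved/total read fraction divided by the unmutated ribozyme's fraction, averaged across three batches. A variant needed a minimum of 5 reads.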

Variant | self-cleavage
UAACAGGGGGCCACAGCAGGAGCGUUCUCGUCGCAGCCCCUGUCAGAUUCUGGUGAAUCUGCAAAUUCUGCUGUAUAUCUC [A20G A28U G63A] | 0.39
UAACAGGGGGCCACAGCAGGAGCGUUCUCGUCGCAGCCCCUGUCAGACUCUGGUGAAUCUGCGAAUUCUGCAGUAUCUCUC [A20G A28U U48C U72A A77C] | 0.09
UAACAGGGGGCCACAGCAGGAGCGUUCUCGUCGCAGCCCCUGUCAGAUUCAGGUGAAUCUGCGAAUUCUGCUGUAUAUCUC [A20G A28U U51A] | 0.63
UAACAGGGGGCCACAGCAGGAGCGUUCUCGUCGCAGCCCCUGUCAGAUUCUGGUGAAUCUGCGAAUCCUGCUGUACAUCUC [A20G A28U U67C U76C] | 0.34
UAACAGGGGGCCACAGCAGGAGCGUUCACGUCGCCGCCCCUGUCAGGUUCUGGUGAAUCUGCGAAUUCUGCUGUAUAUCUC [A20G A35C A47G] | 0.41
UAACAGGGGGCCACAGCAGGAGCGUUCACGUCGCCGCCCCUGUCAAAUUCUGGUGAAUCUGCGAACUCUGCUGUAUAUCUC [A20G A35C G46A U66C] | 0.14
UAACAGGGGGCCACAGCAGGAGCGUUCACGUCGCCGCCCCUGUCAGAUCCUGGUGUAUCUGCGAAUUCUGCUGUAUAUCUC [A20G A35C U49C A56U] | 0.2
UAACAGGGGGCCACAGCAGGAGCGUUCACGUCGCCGCCCCUGUCAGAUUCCGGUGAACCUGCGAAUUCUGCUGCAUAUCUC [A20G A35C U51C U58C U74C] | 0.11
UAACAGGGGGCCACAGCAGGAGCGUUCACGUCGCCGCCCCUGUCAGAUUCUGGUGAACCUGCGUAUUCUGCUGUAUAUCUC [A20G A35C U58C A64U] | 0.1
UAACAGGGGGCCACAGCAGGAGCGUUCACGUCGCGGCCCCUGUCUGAUUCUGGUGAAUCUGCGAAUUCUGCUGUAUAUCUC [A20G A35G A45U] | 1.12
UAACAGGGGGCCACAGCAGGAGCGUUCACGUCGCGGCCCCUGUCAGAUUCUGGUGAAUUCGCGAAUUCUGCUGUAUAUCUC [A20G A35G C59U U60C] | 0.23
UAACAGGGGGCCACAGCAGGAGCGUUCACGUCGCGGCCCCUGUCAGAUUCUCGCGAGUCUGCGAAUUCUGCUGUAUGUCUC [A20G A35G G52C U54C A57G A77G] | 1.22
UAACAGGGGGCCACAGCAGGAGCGUUCACGUCGCGGCCCCUGUCAGAUUCUGGUCAAUCUGCGAAUUCUGCUGUAUAUCUC [A20G A35G G55C] | 1.2
UAACAGGGGGCCACAGCAGGAGCGUUCACGUCGCGGCCCCUGUCAGAUUCUGGUGAAUCUUCGAAUUCUGCUGUAAAUCUC [A20G A35G G61U U76A] | 1.1
UAACAGGGGGCCACAGCAGGAGCGUUCACGUCGCGGCCCCUGUCAGAUUCUGGUGAAUCUGCUAAUUCUGCUGUAUAUCUC [A20G A35G G63U] | 1.22
UAACAGGGGGCCACAGCAGGAGCGUUCACGUCGCGGCCCCUGUCAGACCCUGGUGAAUCCGCGAAUUCUGCUGUACAUCUC [A20G A35G U48C U49C U60C U76C] | 0.12
UAACAGGGGGCCACAGCAGGAGCGUUCACGUCGCGGCCCCUGUCAGAUACUGGUGAAUCUGCGGAUUCUGCUGUUUAUCUC [A20G A35G U49A A64G A75U] | 0.94

Variant | self-cleavage
UAACAGGGGGCCACAGCAGGAGCGUUCACGUCGCGGCCCCUGUCAGAUUCAGGUGAAACUGCGAACUCUGCUGUAUAUCUC [A20G A35G U51A U58A U66C] | 0.54
UAACAGGGGGCCACAGCAGGAGCGUUCACGUCGCGGCCCCUGUCAGAUUCCGGUGAAUCUGCGGAUUCUGCUGUAUAUCUC [A20G A35G U51C A64G] | 1.04
UAACAGGGGGCCACAGCAGGAGCGUUCACGUCGCGGCCCCUGUCAGAUUCCGGUGAAUCUGCGAAUUAUGCAGUAUAUCUC [A20G A35G U51C C68A U72A] | 0.87
UAACAGGGGGCCACAGCAGGAGCGUUCACGUCGCGGCCCCUGUCAGAUUCUGGCGAAUCUGCGAAUUCUGCUGUUUAUGUC [A20G A35G U54C A75U C79G] | 1.28
UAACAGGGGGCCACAGCAGGAGCGUUCACGUCGCGGCCCCUGUCAGAUUCUGGUGAACCUGCGAAUUCUGCCGUAUAUCUC [A20G A35G U58C U72C] | 0.99
UAACAGGGGGCCACAGCAGGAGCGUUCACGUCGCGGCCCCUGUCAGAUUCUGGUGAAUCAGCGAAUUCUGCAGUAUAUCUC [A20G A35G U60A U72A] | 0.48
UAACAGGGGGCCACAGCAGGAGCGUUCACGUCGCGGCCCCUGUCAGAUUCUGGUGAAUCGGCGAAUUCUGCUGUAUAUCUC [A20G A35G U60G] | 0.81
UAACAGGGGGCCACAGCAGGAGCGUUCACGUCGCGGCCCCUGUCAGAUUCUGGUGAAUCGGCGAAUUCUGGUGUAUAUCUC [A20G A35G U60G C71G] | 0.22
UAACAGGGGGCCACAGCAGGAGCGUUCACGUCGCGGCCCCUGUCAGAUUCUGGUGAAUCUGCGAAUUCCGCUGUUUAUCUC [A20G A35G U69C A75U] | 0.89
UAACAGGGGGCCACAGCAGGAGCGUUCACGUCGCUGCCCCUGUCCGAUUCUGGUGAAUCGGCGAAUUCCGCUGUAUAUCUC [A20G A35U A45C U60G U69C] | 0.16
UAACAGGGGGCCACAGCAGGAGCGUUCACGUCGCUGCCCCUGUCGGAUUCUGGUGAAUCUGCGAAUUCCGCUGUAUAUCUC [A20G A35U A45G U69C] | 0.19
UAACAGGGGGCCACAGCAGGAGCGUUCACGUCGCUGCCCCUGUCAGAUUCUGGUGAUUCUGCGAAUUCUGCUGUAUAUCUC [A20G A35U A57U] | 0.22
UAACAGGGGGCCACAGCAGGAGCGUUCACGUCGCUGCCCCUGUCAGAUUCUGGUGAAUCUGCGAAUUCUGCUGUGUAUCUC [A20G A35U A75G] | 0.24
UAACAGGGGGCCACAGCAGGAGCGUUCACGUCGCUGCCCCCGUCAGAUACCGGUGAAUAUGCGAAUUCUACUGUAUAUCUC [A20G A35U U41C U49A U51C C59A G70A] | 0.07
UAACAGGGGGCCACAGCAGGAGCGUUCACGUCGCUGCCCCUGUCAGAUCCUGGUGGAUCUGCGAAUUCUGCUGUGUAUCUC [A20G A35U U49C A56G A75G] | 0.16
UAACAGGGGGCCACAGCAGGAGCGUUCACGUCGCUGCCCCUGUCAGAUCCUGGUGAAUCUGCGGAUUCUGCAGUAUAUCCC [A20G A35U U49C A64G U72A U80C] | 0.05
UAACAGGGGGCCACAGCAGGAGCGUUCACGUCGCUGCCCCUGUCAGAUUCCGGUGAAUCUGCGAAUUCUGCUGUAUAUCUC [A20G A35U U51C] | 0.32
